Measured values taken from the supplement of paper PMC7125110.
± gives the standard error. Variants at the floor of the assay are shown more often than the library holds them.

B1: glmS ribozyme (parent)
chain: AUAAAAGCGCCAGAACUACAGAAAUGUAGUUGACGAGGAGGAGGUUUAUCGAAUUUUCGGCGGAUGCCUCCAAA

What was measured:
Settings in all cases: with glucosamine-6-phosphate
glucosamine-6-phosphate [1] = variants of: B1; experiment: self-cleavage kobs at 640 uM GlcN6P; higher = faster cleavage; RNA array
Method in brief: (§1)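 Sequenced MiSeq chips were the platform: E. coli RNA polymerase transcribed barcoded ribozyme variants on them in situ, and a hybridised Cy3 probe tracked these at 37 °C. After glucosamine-6-phosphate (40 μM to 10 mM) in HEPES/KCl/Mg(OAc)2 buffer was flowed in, tiles were imaged over ~14 h. Signals normalised to baseline and to non-cleaving reference variants were reduced to per-tile medians and fit to one- or two-exponential decays to obtain kobs. kcat and KM were derived through weighted Michaelis–Menten fits across concentrations.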

glucosamine-6-phosphate [2] = variants of: B1; experiment: self-cleavage kobs at 160 uM GlcN6P; higher = faster cleavage; RNA array
Method in brief: as §1

glucosamine-6-phosphate [3] = variants of: B1; experiment: self-cleavage kobs at 2500 uM GlcN6P; higher = faster cleavage; RNA array
Method in brief: as §1

glucosamine-6-phosphate [4] = variants of: B1; experiment: self-cleavage kobs at 10000 uM GlcN6P; higher = faster cleavage; RNA array
Method in brief: as §1

Row | Variant | self-cleavage kobs at 640 uM GlcN6P (glucosamine-6-phosphate [1]) [s⁻¹] | self-cleavage kobs at 160 uM GlcN6P (glucosamine-6-phosphate [2]) [s⁻¹] | self-cleavage kobs at 2500 uM GlcN6P (glucosamine-6-phosphate [3]) [s⁻¹] | self-cleavage kobs at 10000 uM GlcN6P (glucosamine-6-phosphate [4]) [s⁻¹]
1 | G9A A36C G41U A64G C70U | < 1e-05 | < 1e-05 | < 1e-05 | < 1e-05
2 | A12G U31C G37A C70A | < 1e-05 |  |  | 
3 | C8G G44A U56A | < 1e-05 |  | < 1e-05 | < 1e-05
4 | C11A A15G C16A G29U | 6.91e-05 ± 2.4e-05 |  | 0.000102 ± 2.4e-05 | 0.000192 ± 3.5e-05
5 | G9C A42U G63U C68G | < 1e-05 |  | < 1e-05 | 
6 | C8G G38U G41A U46G G59A | < 1e-05 |  |  | 
7 | C10U U30A U47G A53G | < 1e-05 | < 1e-05 |  | 
8 | C10A U46A U56G | < 1e-05 | < 1e-05 | < 1e-05 | 
9 | C8U A42U A64C U69C | < 1e-05 | < 1e-05 |  | 
10 | C11G A36C G44U G51A G62U | < 1e-05 |  | < 1e-05 | 
11 | G9C A15G | < 1e-05 | < 1e-05 | < 1e-05 | < 1e-05
12 | G9A G66C | < 1e-05 | < 1e-05 | < 1e-05 | 
13 | A12G G38U U65C | < 1e-05 | < 1e-05 |  | 
14 | C11A A14G A52U G62U | < 1e-05 |  |  | 
15 | C8G G63C C70A | < 1e-05 |  |  | 
16 | C11U U65A C71U | 2.73e-05 ± 1.3e-05 |  | 8.15e-05 ± 1.6e-05 | 0.000139 ± 4.3e-05
17 | C11G C34U | < 1e-05 | < 1e-05 | < 1e-05 | 
18 | C10G G29A U65G | < 1e-05 |  |  | 
19 | C11G G44A U49C C50A A64G G66A | < 1e-05 |  |  | 
20 | G9U G51U C71U | < 1e-05 |  |  | 

Row | Variant | self-cleavage kobs at 640 uM GlcN6P (glucosamine-6-phosphate [1]) [s⁻¹] | self-cleavage kobs at 160 uM GlcN6P (glucosamine-6-phosphate [2]) [s⁻¹] | self-cleavage kobs at 2500 uM GlcN6P (glucosamine-6-phosphate [3]) [s⁻¹] | self-cleavage kobs at 10000 uM GlcN6P (glucosamine-6-phosphate [4]) [s⁻¹]
21 | A12C G35U G41U | < 1e-05 | < 1e-05 |  | 
22 | C10G A64C | < 1e-05 |  |  | 
23 | C11G A12U G41U A53G C67G | < 1e-05 |  |  | 
24 | G9C A39C | < 1e-05 | < 1e-05 | < 1e-05 | < 1e-05
25 | G9C U47C | < 1e-05 |  | < 1e-05 | 
26 | C10U C11A A52U G66C | < 1e-05 |  |  | 
27 | C8U G13U C58A | < 1e-05 |  | < 1e-05 | 
28 | C11U G37C C50A G63A | < 1e-05 |  |  | 
29 | G9C C11G A15G G38U | < 1e-05 |  |  | 
30 | C10G G32C | < 1e-05 | < 1e-05 |  | 
31 | A12C A15G C16G G51U | < 1e-05 |  |  | 
32 | C11U C50U G60C | < 1e-05 |  |  | 
33 | C10A G35U | < 1e-05 |  | < 1e-05 | 
34 | C10A G35C | < 1e-05 |  |  | < 1e-05
35 | C11U G29U G40A | < 1e-05 | < 1e-05 |  | 5.39e-05 ± 1.7e-05
36 | C10U C16U G32A C50G | 0.000327 ± 0.00015 |  |  | 
37 | C10G A14C G43C G66U C67A | < 1e-05 |  |  | 
38 | G9A A12G C34G A39U G41C | < 1e-05 |  |  | 
39 | G9A U49G U69C | < 1e-05 |  | < 1e-05 | 
40 | A12G G29C A33C | < 1e-05 |  | < 1e-05 | 

Row | Variant | self-cleavage kobs at 640 uM GlcN6P (glucosamine-6-phosphate [1]) [s⁻¹] | self-cleavage kobs at 160 uM GlcN6P (glucosamine-6-phosphate [2]) [s⁻¹] | self-cleavage kobs at 2500 uM GlcN6P (glucosamine-6-phosphate [3]) [s⁻¹] | self-cleavage kobs at 10000 uM GlcN6P (glucosamine-6-phosphate [4]) [s⁻¹]
41 | C10G A36G A39C | < 1e-05 | < 1e-05 |  | 
42 | C11U U31C | 0.000179 ± 2.3e-05 | 2.97e-05 ± 1.5e-05 | 0.000364 ± 5.9e-05 | 0.000465 ± 5.5e-05
43 | C11G G41A U56G | < 1e-05 |  | < 1e-05 | 
44 | C10G G38C | < 1e-05 | < 1e-05 |  | < 1e-05
45 | A12C U31C G41C A64C | < 1e-05 | < 1e-05 | < 1e-05 | 
46 | C8U A53G U54A | < 1e-05 |  |  | 
47 | G9U U31A A64G | < 1e-05 | < 1e-05 |  | 
48 | C10A A48C U56C | < 1e-05 | < 1e-05 |  | 
49 | C11G C34U A36U U55A C67A | < 1e-05 |  |  | 
50 | C8G C16A | < 1e-05 | < 1e-05 | < 1e-05 | < 1e-05
51 | C8G A14U G63A C70U C71U | < 1e-05 |  | < 1e-05 | 
52 | C8U A15U G60U G62C C68G | < 1e-05 |  |  | 
53 | G9A A39U | < 1e-05 | < 1e-05 |  | 
54 | G9C G63U G66A C68A C71A | < 1e-05 |  | < 1e-05 | 
55 | C8A U57G | < 1e-05 |  | < 1e-05 | 
56 | G9U U55C G62U | < 1e-05 |  |  | 
57 | C11U G37A C58G | < 1e-05 | < 1e-05 |  | 
58 | G9A U45C A53U G60C | < 1e-05 |  |  | 
59 | G9U A15U G62A U65G C67G | < 1e-05 |  | < 1e-05 | 
